Data: article PMC6919601, “Identification of Plasmodium dipeptidyl aminopeptidase allosteric inhibitors by high throughput screening” (PLoS ONE, 2019)
Among all 110,000 compounds or so, about 230 (0.21%) showed an effect of 50% or more. The list shows a part of the results.

Molecular target: DPAP1 (Plasmodium falciparum, UniProt Q8IIJ9)
Assay: primary screen, percent inhibition; read by cleavage of a fluorogenic dipeptide substrate; higher = more effect of the substance
Set-up: species or system P. falciparum D10 trophozoite lysates; single well
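Note: 30 min substrate incubation versus DMSO and 10 µM JCP410 controls.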

DPAP1, sequence (Q8IIJ9 whole entry, looked up): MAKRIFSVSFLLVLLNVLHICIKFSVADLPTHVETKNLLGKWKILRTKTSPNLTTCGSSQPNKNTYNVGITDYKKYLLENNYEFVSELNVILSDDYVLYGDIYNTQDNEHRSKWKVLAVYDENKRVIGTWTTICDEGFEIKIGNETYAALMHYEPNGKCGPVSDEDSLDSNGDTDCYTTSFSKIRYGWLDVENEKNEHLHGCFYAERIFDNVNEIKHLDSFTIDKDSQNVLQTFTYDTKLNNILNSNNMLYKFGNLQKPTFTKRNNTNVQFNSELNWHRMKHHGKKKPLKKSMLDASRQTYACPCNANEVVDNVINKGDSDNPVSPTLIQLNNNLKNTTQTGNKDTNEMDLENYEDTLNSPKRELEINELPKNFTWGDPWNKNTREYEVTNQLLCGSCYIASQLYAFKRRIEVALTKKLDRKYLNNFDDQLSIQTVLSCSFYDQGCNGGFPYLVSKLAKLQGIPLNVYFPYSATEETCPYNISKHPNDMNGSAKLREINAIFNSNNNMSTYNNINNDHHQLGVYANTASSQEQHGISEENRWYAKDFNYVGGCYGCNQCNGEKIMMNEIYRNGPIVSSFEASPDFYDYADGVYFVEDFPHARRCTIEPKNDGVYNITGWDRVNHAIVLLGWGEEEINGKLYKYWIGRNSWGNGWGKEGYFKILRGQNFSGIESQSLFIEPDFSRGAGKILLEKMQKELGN

SMILES	% Inhibition @ 10 uM [%]
COCCNC(=O)CCCCCNc1nc(S)nc2ccccc12	15.7
CCOc1ccc(-c2[nH]nc3c2C(c2ccccc2F)C(C#N)=C(N)O3)cc1 (stereo not shown)	-0.99
O=C(Nc1nn2c(-c3ccccc3)nnc2s1)c1ccccc1	1.68
NC(=O)c1c(NC(=O)c2ccc(Br)o2)sc2c1CCCCCC2	12.5
COc1ccc(C2CC(=O)NC3=C2C(=O)CC(C)(C)C3)cc1 (stereo not shown)	4.63
O=C(Cn1ncc2c(=O)oc3ccccc3c21)NCc1cccs1	-8.63
CN1CCN(CC(c2ccccc2)c2ccccc2)CC1	-5.65
CCN(CC)c1ccc(NC(=O)c2cc(OC)cc(OC)c2)cc1	-4.15
Cc1[nH]nc2c1C(c1ccc(Br)cc1F)C(C#N)=C(N)O2 (stereo not shown)	0.385
COc1ccccc1OCCCn1c(C)c(C(=O)C(F)(F)F)c2ccccc21	3.63
Cc1ccc(SCC(=O)Nc2nnc(CCS(=O)(=O)c3ccc(Cl)cc3)s2)cc1	1.26
CN(C)c1ncnc2c1cnn2C	-7.06
COc1ccc(-c2nc3s/c(=C\c4ccncc4)c(=O)n3n2)cc1	1.91
CS(=O)(=O)c1nc(S(=O)(=O)c2ccc(Cl)cc2)c(NCCCn2ccnc2)s1	-0.522
NC1=NC(=O)/C(=C/c2cc(Br)c(O)c(Br)c2)S1	-2.87
COc1ccc(Cc2nc3c4cnn(-c5nc6ccccc6s5)c4ncn3n2)cc1OC	-1.32
Cc1c(C(=O)N2CCc3ccccc3C2)sc2nc(-c3ccc(F)cc3)cn12	-0.138
COc1ccc(CN2CCN(Cc3ccccc3C)CC2)cc1	2.28
Cc1c(/C=N/n2cnnc2)c(O)n2c(nc3ccccc32)c1C#N	-1.25
NC(=O)CSc1cn(CC(=O)N2CCCCC2)c2ccccc12	6.79
Cc1cc(S(=O)(=O)Nc2cccnc2)c(C)cc1Cl	-0.183
CCOc1ccc(N2CC(C(=O)Nc3cccc(Cl)c3)CC2=O)cc1 (stereo not shown)	6.65
CCc1c(C)c2ccc3c(c2oc1=O)CN(CCc1ccc(OC)c(OC)c1)CO3	-2.13
CCOc1ccc(-c2nc(C)c(C(C)=O)n2O)cc1	-4.77
COc1cc(/C=C2/SC(=O)N(C(C)C)C2=O)ccc1OCC(=O)Nc1ccc(C)cc1	-5.3
COc1ccc2cc3c(N)nn(C(=O)CN4CCOCC4)c3nc2c1	-1.28
O=C(NC1CON=C1NCCc1c[nH]c2ccccc12)OCc1ccccc1 (stereo not shown)	10.8
O=C1NC(=O)C(=Cc2ccccc2C(F)(F)F)C(=O)N1	-5.6
